From article PMC10776578, “Epstein-Barr virus-driven B cell lymphoma mediated by a direct LMP1-TRAF6 complex” (Nature Communications, 2024)
No constants are given. Whether binding was seen depends on the method and setting. Some results given as binding are weak or reduced against the parent protein; the word gives no strength. Where a sequence is shown, tags or fusion partners need not be part of it.

Amino acid sequences for entries named in this document (tags omitted). A change or cut given only in a name is not applied to a line headed by its entry. Chains listed by the source or under a name are the forms on record and can include a tag or linker. Residues count along the entry.
GST-CD40_(216-277) (P25942, residues 216-277): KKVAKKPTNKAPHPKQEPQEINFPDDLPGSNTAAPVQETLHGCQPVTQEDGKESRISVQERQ
GST-CD40_(216-277) A233xAxxA (P25942, form named): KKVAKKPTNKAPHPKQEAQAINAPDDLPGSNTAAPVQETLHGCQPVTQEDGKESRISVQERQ
UniProt O00463, residues 363-557: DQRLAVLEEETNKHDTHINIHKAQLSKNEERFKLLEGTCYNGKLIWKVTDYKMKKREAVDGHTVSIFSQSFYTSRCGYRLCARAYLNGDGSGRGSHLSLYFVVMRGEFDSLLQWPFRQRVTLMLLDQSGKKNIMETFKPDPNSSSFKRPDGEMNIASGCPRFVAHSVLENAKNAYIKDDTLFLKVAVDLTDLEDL

What was measured:
[1] = molecular target: GST-LMP1_(181-386) A204xAxA (Epstein-Barr virus) (UniProt P03230); assay: pull-down; both purified
[2] = molecular target: GST-LMP1_(181-386) (Epstein-Barr virus) (UniProt P03230); assay: pull-down; both purified
[3] = molecular target: GST-LMP1_(181-386) Y384G (Epstein-Barr virus) (UniProt P03230); assay: pull-down; both purified
[4] = molecular target: LMP1-derived CTAR2 peptide 12 (357-386, P379xQxS to AxAxA) (Epstein-Barr virus) (UniProt P03230); assay: peptide or protein array; peptides spot-synthesised on cellulose membranes in duplicate, incubated with 10 µg per mL purified His-TRAF6 or His-TRAF2 in PBST with 5% milk powder for 4 h at RT; detection by TRAF-specific antibodies; both purified
[5] = molecular target: LMP1-derived CTAR2 peptide 9 (371-386, Y384 and Y385 to AA) (Epstein-Barr virus) (UniProt P03230); assay: as above
[6] = molecular target: LMP1-derived CTAR2 peptide 10 (371-386, P379xQxS to AxAxA) (Epstein-Barr virus) (UniProt P03230); assay: as above
[7] = molecular target: GST-LMP1_(181-386) A379xAxxA (Epstein-Barr virus) (UniProt P03230); assay: AlphaScreen or HTRF; AlphaScreen PPI assay: His-TRAF and GST-LMP1, GST-CD40 or GST-RANK in PBS with 0.5% BSA and 0.1% Tween-20, 1 h at RT; standard 300 nM His-TRAF and 100 nM GST protein if not indicated otherwise; for KD His-TRAF6 at different concentrations, fit one site-specific binding with hill slope; both …
[8] = molecular target: GST-LMP1_(181-386) V380A (Epstein-Barr virus) (UniProt P03230); assay: as above
[9] = molecular target: GST-CD40_(216-277) A233xAxxA (human) (UniProt P25942); assay: as above
[10] = molecular target: GST-LMP1_(181-386) (Epstein-Barr virus) (UniProt P03230); assay: as above
[11] = molecular target: T1, GST-RANK_(314-355) (human) (UniProt Q9Y6Q6); assay: as above
T1 sequence: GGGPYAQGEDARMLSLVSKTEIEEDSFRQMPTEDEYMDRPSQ

[12] = molecular target: GST-CD40_(216-277) (human) (UniProt P25942); assay: as above
[13] = molecular target: T2, His-TRAF6_(310-522) (human) (UniProt Q9Y4K3); assay: AlphaScreen or HTRF; AlphaScreen PPI assay in competition: GST-LMP1 or GST-CD40 with His-TRAF6 (dose-response of TRAF6 inhibitor or control peptide, 4-parameter fit) or GST-LMP1 with His-TRAF2 (30 µM peptide); both purified
T2 sequence: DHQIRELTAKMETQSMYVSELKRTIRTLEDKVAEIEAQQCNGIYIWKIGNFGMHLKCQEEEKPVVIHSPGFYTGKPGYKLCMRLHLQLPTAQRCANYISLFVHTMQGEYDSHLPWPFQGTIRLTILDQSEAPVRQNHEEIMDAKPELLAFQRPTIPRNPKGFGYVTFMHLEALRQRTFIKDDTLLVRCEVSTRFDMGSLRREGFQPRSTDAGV

His-TRAF5_(363-557) (from UniProt O00463 363-557) (domain or fragment)
binding [1]: no binding

B1: His-TRAF3_(375-568) (domain or fragment, UniProt Q13114 375-568)
chain: ARNTGLLESQLSRHDQMLSVHDIRLADMDLRFQVLETASYNGVLIWKIRDYKRRKQEAVMGKTLSLYSQPFYTGYFGYKMCARVYLNGDGMGKGTHLSLFFVIMRGEYDALLPWPFKQKVTLMLMDQGSSRRHLGDAFKPDPNSSSFKKPTGEMNIASGCPVFVAQTVLENGTYIKDDTIFIKVIVDTSDLPDP
binding [2]: binds

B2: His-TRAF6_(310-522) (domain or fragment)
chain: DHQIRELTAKMETQSMYVSELKRTIRTLEDKVAEIEAQQCNGIYIWKIGNFGMHLKCQEEEKPVVIHSPGFYTGKPGYKLCMRLHLQLPTAQRCANYISLFVHTMQGEYDSHLPWPFQGTIRLTILDQSEAPVRQNHEEIMDAKPELLAFQRPTIPRNPKGFGYVTFMHLEALRQRTFIKDDTLLVRCEVSTRFDMGSLRREGFQPRSTDAGV
notes: also called His-T6; recombinant TRAF6 wild-type; source: E. coli BL21 Codon Plus RIPL, purified (Ni-NTA)
binding [3]: no binding | binding [4]: no binding (tested: 10 µg per mL) | binding [5]: no binding (tested: 10 µg per mL) | binding [6]: no binding (tested: 10 µg per mL) | binding [7]: no binding | binding [8]: no binding | binding [9]: no binding

B3: His-TRAF6_(310-522) R392A (domain or fragment, UniProt Q9Y4K3 310-522)
chain: DHQIRELTAKMETQSMYVSELKRTIRTLEDKVAEIEAQQCNGIYIWKIGNFGMHLKCQEEEKPVVIHSPGFYTGKPGYKLCMALHLQLPTAQRCANYISLFVHTMQGEYDSHLPWPFQGTIRLTILDQSEAPVRQNHEEIMDAKPELLAFQRPTIPRNPKGFGYVTFMHLEALRQRTFIKDDTLLVRCEVSTRFDMGSLRREGFQPRSTDAGV
binding [10]: no binding | binding [11]: no binding

B4: His-TRAF6_(310-522) Y473A (domain or fragment, UniProt Q9Y4K3 310-522)
chain: DHQIRELTAKMETQSMYVSELKRTIRTLEDKVAEIEAQQCNGIYIWKIGNFGMHLKCQEEEKPVVIHSPGFYTGKPGYKLCMRLHLQLPTAQRCANYISLFVHTMQGEYDSHLPWPFQGTIRLTILDQSEAPVRQNHEEIMDAKPELLAFQRPTIPRNPKGFGAVTFMHLEALRQRTFIKDDTLLVRCEVSTRFDMGSLRREGFQPRSTDAGV
binding [10]: no binding | binding [12]: no binding

B5: His-TRAF6_(310-522) F471A (domain or fragment, UniProt Q9Y4K3 310-522)
chain: DHQIRELTAKMETQSMYVSELKRTIRTLEDKVAEIEAQQCNGIYIWKIGNFGMHLKCQEEEKPVVIHSPGFYTGKPGYKLCMRLHLQLPTAQRCANYISLFVHTMQGEYDSHLPWPFQGTIRLTILDQSEAPVRQNHEEIMDAKPELLAFQRPTIPRNPKGAGYVTFMHLEALRQRTFIKDDTLLVRCEVSTRFDMGSLRREGFQPRSTDAGV
binding [10]: no binding | binding [12]: no binding

B6: His-TRAF1_(226-416) (domain or fragment)
chain: RERILSLEQRVVELQQTLAQKDQALGKLEQSLRLMEEASFDGTFLWKITNVTRRCHESACGRTVSLFSPAFYTAKYGYKLCLRLYLNGDGTGKRTHLSLFIVIMRGEYDALLPWPFRNKVTFMLLDQNNREHAIDAFRPDLSSASFQRPQSETNVASGCPLFFPLSKLQSPKHAYVKDDTMFLKCIVETST
notes: source: E. coli BL21 Codon Plus RIPL, purified (Ni-NTA)
binding [1]: no binding

DRQIKIWFQNRRMKWKK [Antennapedia leader peptide …]
binding [13]: no binding
